Results taken from the supplement of paper PMC9446081.
Among all 39,000 compounds or so, about 220 (0.56%) showed activity. Some of the results follow.

These compounds were tested on Escherichia coli K-12 BW25113 (assay: relative growth (OD600 normalised to plate interquartile mean) (fraction); higher = less growth inhibition, active = 0.2 or less). Details: 50 µM; LB; incubation time: overnight (16-24 h).
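Note: static incubation at 37 °C against the wild-type strain, values averaged over two biological replicates.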

Row | SMILES | relative growth
1 | CN(C)CC#Cc1ccc([C@H]2[C@H](CO)N3CCCCN(C(=O)CN(C)C)C[C@@H]23)cc1 | inactive: 1.05
2 | CC(C)NC(=O)N(C)C[C@@H]1Oc2ccc(NC(=O)C3CCCCC3)cc2C(=O)N([C@@H](C)CO)C[C@@H]1C | inactive: 0.916
3 | C[C@@H]1CCCCO[C@@H](CN(C)Cc2ccncc2)[C@@H](C)CN([C@H](C)CO)C(=O)c2cc(NC(=O)NC3CCCCC3)ccc2O1 | inactive: 0.997
4 | COc1ccc(NC(=O)Nc2ccc3c(c2)C(=O)N([C@H](C)CO)C[C@@H](C)[C@@H](CN(C)Cc2ccc(C(=O)Nc4ccccc4N)cc2)O3)cc1 | inactive: 1
5 | COc1ccc(-c2cnc3c(c2)C(=O)N([C@@H](C)CO)C[C@H](C)[C@H](CN(C)C(=O)Cc2ccccn2)O3)cc1 | inactive: 0.982
6 | C[C@H]1CN([C@@H](C)CO)C(=O)c2cc(NS(=O)(=O)c3cccs3)ccc2O[C@H]1CN(C)Cc1ccc(-c2ccccc2)cc1 | inactive: 0.987
7 | C[C@@H]1CN([C@H](C)CO)C(=O)c2cc(NC(=O)Cc3ccccc3)ccc2O[C@@H](C)CCCCO[C@H]1CN(C)C(=O)Nc1ccccc1 | inactive: 1
8 | C[C@@H]1CCCCO[C@@H](CN(C)S(=O)(=O)c2ccccc2)[C@H](C)CN([C@@H](C)CO)C(=O)c2cc(NC(=O)Nc3cccc4ccccc34)ccc2O1 | inactive: 1.02
9 | Cc1noc(C)c1S(=O)(=O)N(C)C[C@H]1Oc2ccc(NC(=O)NC(C)C)cc2CC(=O)N([C@@H](C)CO)C[C@H]1C | inactive: 0.993
10 | C=CCNc1nc(C)nc(OC)n1 | inactive: 1.01
11 | C[C@@H]1CN([C@H](C)CO)C(=O)c2cccc(NC(=O)c3ccncc3)c2O[C@@H]1CN(C)Cc1ccc(Oc2ccccc2)cc1 | inactive: 0.988
12 | CCOC(=O)C(CCc1ccccc1)NC1CCc2ccccc2N(CC(=O)O)C1=O.Cl (centres undefined) | inactive: 1.04
13 | Cc1sccc1-c1csc(N)n1 | inactive: 0.996
14 | C[C@@H]1CCCCO[C@@H](CN(C)C(=O)Nc2ccc(C(F)(F)F)cc2)[C@H](C)CN([C@@H](C)CO)C(=O)c2cc(NS(=O)(=O)c3cccs3)ccc2O1 | inactive: 1
15 | C[C@@H]1CN([C@@H](C)CO)C(=O)Cc2cc(NC(=O)Nc3cccc4ccccc34)ccc2O[C@@H]1CN(C)C(=O)Nc1ccc(F)cc1 | inactive: 0.993
16 | Cc1ccc(S[C@]2(C(=O)NCC(C)C)CC(=O)N(Cc3ccccc3C(F)(F)F)[C@@H]2c2ccc(CO)cc2)cc1 | inactive: 0.988
17 | C[C@@H]1CCCCO[C@H](CN(C)Cc2ccccc2)[C@H](C)CN([C@@H](C)CO)C(=O)c2cc(NS(=O)(=O)c3ccc(Cl)cc3)ccc2O1 | inactive: 0.95
18 | CC(C)NC(=O)Nc1ccc2c(c1)C(=O)N([C@H](C)CO)C[C@H](C)[C@H](CN(C)S(=O)(=O)c1cn(C)cn1)O2 | inactive: 0.892
19 | C[C@H]1CCCCO[C@@H](CN(C)Cc2ccncc2)[C@@H](C)CN([C@@H](C)CO)C(=O)c2cc(NC(=O)NC3CCCCC3)ccc2O1 | inactive: 1.01
20 | CC(C)NC(=O)N(C)C[C@H]1Oc2ccc(NC(=O)NC3CCCCC3)cc2CC(=O)N([C@@H](C)CO)C[C@H]1C | inactive: 1

Row | SMILES | relative growth
21 | COCC(=O)N[C@H]1C=C[C@H](CC(=O)N2CCCCC2)O[C@@H]1CO | inactive: 0.885
22 | C[C@H]1CN([C@@H](C)CO)C(=O)c2cc(-c3cccc(C(=O)N(C)C)c3)cnc2O[C@@H]1CN(C)C(=O)Cc1ccccn1 | inactive: 1
23 | O=C(C[C@@H]1CC[C@@H]2[C@H](COC[C@@H](O)CN2C(=O)c2ccc3c(c2)OCO3)O1)NCCN1CCCCC1 | inactive: 1.01
24 | COc1ccc([C@@H](N)c2ccccc2)cc1 | inactive: 0.977
25 | C[C@@H]1CN([C@@H](C)CO)C(=O)CCCn2nncc2CO[C@@H]1CN(C)C(=O)Nc1ccnc(N2CCOCC2)c1 | inactive: 0.967
26 | C[C@H](CO)N1C[C@H](C)[C@H](CN(C)C(=O)Nc2ccccc2)Oc2c(NC(=O)c3cnccn3)cccc2C1=O | inactive: 1.02
27 | C[C@H]1CN([C@@H](C)CO)C(=O)c2c(c3ccccc3n2C)-c2ccccc2CO[C@H]1CN(C)Cc1ccc(O)cc1 | inactive: 0.997
28 | O=S1(=O)NCC2(COC2)O1 | inactive: 1.01
29 | Cc1ccc(S(=O)(=O)N(C)C[C@@H]2Oc3c(NS(=O)(=O)c4ccccc4)cccc3C(=O)N([C@H](C)CO)C[C@@H]2C)cc1 | inactive: 1.01
30 | COc1ccc(S(=O)(=O)Nc2ccc3c(c2)C(=O)N([C@@H](C)CO)C[C@H](C)[C@H](CN(C)C(=O)Nc2cccc4ccccc24)OCCCC[C@@H](C)O3)cc1 | inactive: 1.02
31 | C[C@H]1CN([C@@H](C)CO)S(=O)(=O)c2ccc(C#Cc3cccnc3)cc2O[C@@H]1CN(C)C(=O)CN(C)C | inactive: 0.99
32 | O=C(C[C@@H]1CC[C@@H]2[C@H](COC[C@H](O)CN2C(=O)Nc2cccc(Cl)c2)O1)NCc1ccccc1F | inactive: 1
33 | CCOC(=O)CC1(C)NNC(=S)NN1 | inactive: 1.03
34 | C[C@@H]1CN([C@H](C)CO)C(=O)c2c(c3ccccc3n2C)-c2ccccc2CO[C@@H]1CN(C)C(=O)Nc1ccc(-c2ccccc2)cc1 | inactive: 1.03
35 | C[C@@H]1CN([C@H](C)CO)C(=O)c2cccc(NS(C)(=O)=O)c2O[C@H]1CN(C)C(=O)Nc1ccc(C(F)(F)F)cc1 | inactive: 0.982
36 | COc1ccc(NC(=O)N[C@@H]2CC[C@@H](CCNC(=O)CN3CCOCC3)O[C@H]2CO)cc1 | inactive: 0.975
37 | Cc1noc(C)c1S(=O)(=O)Nc1ccc2c(c1)CC(=O)N([C@@H](C)CO)C[C@H](C)[C@@H](CN(C)Cc1ccc(Oc3ccccc3)cc1)O2 | inactive: 0.999
38 | Cc1ccc(S(=O)(=O)N(C)C[C@H]2Oc3ccc(NC(=O)CCN4CCOCC4)cc3C(=O)N([C@@H](C)CO)C[C@@H]2C)cc1 | inactive: 1.02
39 | C[C@@H]1CN([C@@H](C)CO)C(=O)c2cccc(NC(=O)Nc3ccc(C(F)(F)F)cc3)c2O[C@H]1CN(C)Cc1ccc(C(=O)O)cc1 | inactive: 0.973
